# Screen size: about 340,000 compounds; about 6,900 (2%) were called active. No stated cut-off is given here; in the data, active means inhibition above about 30%; inactive means below that, where a call was filed. The list shows a part of the results, in another mix than the full data. Entries without a call were filed so in the source.
# Target: D(2) dopamine receptor (Homo sapiens) (UniProt P14416)
# Assay: HTS Assay for Allosteric Antagonists of the Human D2 Dopamine Receptor: Primary Screen for Antagonists; further: 0% is about no effect
# Settings: HEK293 TREx D2 cells, calcium flux, dopamine EC80; at 10 µM; stronger effect = higher value
# Summary of the method: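 Tetracycline-induced HEK293 TREx cells expressing D2 receptor forced-coupled to calcium signalling, loaded with no-wash calcium dye. Compounds added and calcium flux read 180 s, then dopamine added at EC80 and read a further 180 s.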
# Chain of UniProt P14416 (P14416 whole entry, looked up): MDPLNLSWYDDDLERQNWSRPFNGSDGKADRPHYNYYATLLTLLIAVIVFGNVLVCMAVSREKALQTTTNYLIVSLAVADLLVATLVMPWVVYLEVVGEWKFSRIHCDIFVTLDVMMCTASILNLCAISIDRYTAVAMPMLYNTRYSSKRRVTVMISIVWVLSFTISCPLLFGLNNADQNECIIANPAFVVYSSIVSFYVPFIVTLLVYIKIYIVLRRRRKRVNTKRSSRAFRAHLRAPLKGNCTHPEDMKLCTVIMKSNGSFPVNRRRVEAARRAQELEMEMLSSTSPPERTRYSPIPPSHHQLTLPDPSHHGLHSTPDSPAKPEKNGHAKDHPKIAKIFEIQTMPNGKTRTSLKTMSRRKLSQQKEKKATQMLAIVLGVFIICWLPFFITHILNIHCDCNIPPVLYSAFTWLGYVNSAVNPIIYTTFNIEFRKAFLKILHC
row,SMILES,inhibition
1,Nc1nonc1-c1nc2ccccc2n1CC(=O)Nc1cccc(C(F)(F)F)c1,-5.56%
2,COc1ccc(C)cc1NC(=O)CSc1ncc2c(n1)-c1ccc(Cl)cc1N(Cc1ccccc1)S2(=O)=O,5.79%
3,Cc1ccc(NC(=O)CCN2C(=O)c3ccccc3Sc3ncccc32)cc1,8.66%
4,CC1=C(C(=O)Nc2ccccc2)C(c2ccc(F)cc2)n2nc(SCc3cc(C)ccc3C)nc2N1 (centres undefined),-4.49%
5,COC(=O)c1ccc(NC(=O)C(=O)NCCc2csc3nc(-c4ccccc4F)nn23)cc1,7.51%
6,NC(=O)c1cc2ccccc2o/c1=N/NC(=O)c1cccc(Cl)c1,active: 49%
7,CCN(CC)S(=O)(=O)c1ccc2c(c1)N(CC(=O)Nc1cccc(C)c1C)C(=O)C1CCCN21 (centres undefined),7.51%
8,COc1cccc(-c2noc(-c3cc4ccccc4oc3=O)n2)c1OC,-0.614%
9,CC(=O)Nc1ccc(OCC(O)CN2CCN(c3cc(Cl)ccc3C)CC2)cc1 (centres undefined),active: 92.6%
10,O=C(NCc1ccc2c(c1)CCN2C(=O)c1ccc(F)cc1)c1c(F)cccc1F,8%
11,CCOCCCNC(=O)Cn1ncc2c([nH]c3ccccc32)c1=O,15.8%
12,CCN(C(=O)COC(=O)/C(C#N)=C/c1ccc(OC)cc1)C1CCS(=O)(=O)C1 (centres undefined),active: 35.6%
13,Clc1ccccc1CNCCCSc1nnnn1-c1ccccc1,-9.6%
14,CCOc1ccc(/C=C/c2nc(C#N)c(NCc3ccc(OC)cc3)o2)cc1,-8.57%
15,COCCn1c(C)cc(O)c(C(c2ccccc2)N2CCCCC2)c1=O (centres undefined),2.5%
16,CCc1ccccc1NC(=O)N1CCN(Cc2nc3ccc(C)cc3o2)CC1,1.57%
17,Cc1ccc(-n2ncc3c(Nc4ccc(Oc5ccccc5)cc4)ncnc32)cc1,14.1%
18,Cn1nnc(NC(=O)CSc2ccc(Cl)cc2)n1,active: 39.8%
19,Cc1cccc(Cn2cc3c(=O)n(CC(=O)Nc4cccc(C)c4C)nc-3c3cc(F)ccc32)c1,-2.9%
20,Cc1c(C(=O)Nc2cccc(C(F)(F)F)c2)sc2nc3n(c(=O)c12)CCC3,26.8%
21,CCCN(CCC)CCNC(=O)c1cc2c(=O)oc3ccc(C)cc3c2s1,-8.92%
22,COc1ccc(NC(=O)c2cc(C3CC3)nc3c2c(C)nn3-c2ccccc2)c(OC)c1,6.94%
23,CC(C)Cc1nn2c(=O)cc(COC(=O)c3cccc(NC(=O)c4ccccc4)c3)nc2s1,12%
24,Cc1cccc(N2CCN(C(=O)c3cc4ccc5cccnc5c4[nH]3)CC2)c1C,-3.73%
25,COCCN(Cc1ccc(C)c(Br)c1)S(=O)(=O)c1ccc2[nH]c(=O)ccc2c1,23.1%

row,SMILES,inhibition
1,CCOCCCNC(=O)Cn1ncc2c([nH]c3ccc(C)cc32)c1=O,5.66%
2,Cc1ccc(C)c(N2CCN(C3(c4ccccc4)C(=O)c4ccccc4C3=O)CC2)c1,5.11%
3,Cc1noc(/C=C/N(C)C)c1S(=O)(=O)N1CCC(C(=O)NC(C)(C)C)CC1,active: 31.5%
4,CCOC(=O)c1ccc(NC(=O)c2cc(=O)c3ccc(C)c(C)c3o2)cc1,0.702%
5,CC(=O)N1CCc2cc(Br)cc(S(=O)(=O)CCC(=O)N3CCN(c4cccc(C)c4C)CC3)c21,2.36%
6,Cn1nc(-c2ccccc2)c(-c2ccccc2)c(C(=O)Nc2ccccc2C(N)=O)c1=O,8.98%
7,CCCN(CCC)c1cc(C)nc2nc(-c3ccc(C(C)(C)C)cc3)nn12,23.9%
8,CN(C)c1ccc(-c2nc3ccc(Cl)cn3c2Nc2ccc3c(c2)OCCO3)cc1,-15.1%
9,Cc1cc(C)cc(N2C(=O)CSC23C(=O)N(CC(N)=O)c2ccccc23)c1 (centres undefined),-0.975%
10,CSc1cccc(Nc2cc(C(=O)NC3CCCCC3)c3ccccc3n2)c1,-13.1%
11,COc1cc2c(cc1OC)[C@@H]1Cc3ccc(OC)c(OC)c3CN1CC2,active: 57.2%
12,CCc1ccc2occ(CC(=O)Nc3c(C(=O)c4ccc(F)cc4)oc4ccccc34)c2c1,-5.01%
13,COc1ccc(C)cc1NC(=O)Cn1c(=O)oc2cc(S(=O)(=O)N3CCCCCC3)ccc21,-17.6%
14,CCCCCCSc1nc(N)c2c3c(sc2n1)CCCC3C (centres undefined),10.9%
15,CC(C)(C)C1CCc2c(sc(NC(=O)c3cc(-c4ccc(F)cc4)on3)c2C#N)C1 (centres undefined),-13.4%
16,Cc1ccc(OCC(=O)OCc2cc(=O)n3nc(C4CC4)sc3n2)cc1C,-14.2%
17,Cc1cc(C)cc(-n2ccn3cnnc3c2=O)c1,0.186%
18,CCC(C(=O)NCCc1ccc(OC)c(OC)c1)n1nc(C)c2sc3ccccc3c2c1=O (centres undefined),18%
19,Cc1nc2c([nH]1)C1(CCN(Cc3ccccc3)CC1)C(C#N)=C(N)O2,active: 60%
20,CCCN(c1ccccc1F)S(=O)(=O)c1cc(-c2cc(C)no2)ccc1C,5.51%
21,CCc1nnc2c(Nc3cc(OC)c(Cl)cc3OC)nc3ccccc3n12,-11.6%
22,COc1ccc(-c2oc3ncn4nc(COc5ccc(Cl)cc5)nc4c3c2-c2ccc(OC)cc2)cc1,-15.8%
23,O=C(Nc1ccc2oc(-c3cccc4c(Br)cccc34)nc2c1)c1cccc(Cl)c1,-1.7%
24,Cc1ccc(OCCCC(=O)Nc2sc3c(c2C(N)=O)CCC(C)C3)cc1 (centres undefined),11.5%
